{
  "source": "the supplement of paper PMC11741623",
  "binders": {"B1": {"name": "ZKSCAN4, Q969J2 (protein)", "chain": "MAREPRKNAALDAQSAEDQTGLLTVKVEKEEASALTAEVRAPCSPARGPERSRQRFRGFRYPEAAGPREALSRLRELCGQWLQPEMHSKEQILELLVLEQFLTILPGNLQSWVREQHPESGEEVVVLLEYLERQLDEPAPQVPVGDQGQELLCCKMALLTQTQGSQSSQCQPMKALFKHESLGSQPLHDRVLQVPGLAQGGCCREDAMVASRLTPGSQGLLKMEDVALTLTPGWTQLDSSQVNLYRDEKQENHSSLVSLGGEIQTKSRDLPPVKKLPEKEHGKICHLREDIAQIPTHAEAGEQEGRLQRKQKNAIGSRRHYCHECGKSFAQSSGLTKHRRIHTGEKPYECEDCGKTFIGSSALVIHQRVHTGEKPYECEECGKVFSHSSNLIKHQRTHTGEKPYECDDCGKTFSQSCSLLEHHKIHTGEKPYQCNMCGKAFRRNSHLLRHQRIHGDKNVQNPEHGESWESQGRTESQWENTEAPVSYKCNECERSFTRNRSLIEHQKIHTGEKPYQCDTCGKGFTRTSYLVQHQRSHVGKKTLSQ"}, "B2": {"name": "IGSF6, O95976 (protein)", "chain": "MGTASRSNIARHLQTNLILFCVGAVGACTLSVTQPWYLEVDYTHEAVTIKCTFSATGCPSEQPTCLWFRYGAHQPENLCLDGCKSEADKFTVREALKENQVSLTVNRVTSNDSAIYICGIAFPSVPEARAKQTGGGTTLVVREIKLLSKELRSFLTALVSLLSVYVTGVCVAFILLSKSKSNPLRNKEIKEDSQKKKSARRIFQEIAQELYHKRHVETNQQSEKDNNTYENRRVLSNYERP"}, "B3": {"name": "ENC1, O14682 (protein)", "chain": "MSVSVHENRKSRASSGSINIYLFHKSSYADSVLTHLNLLRQQRLFTDVLLHAGNRTFPCHRAVLAACSRYFEAMFSGGLKESQDSEVNFDNSIHPEVLELLLDYAYSSRVIINEENAESLLEAGDMLEFQDIRDACAEFLEKNLHPTNCLGMLLLSDAHQCTKLYELSWRMCLSNFQTIRKNEDFLQLPQDMVVQLLSSEELETEDERLVYESAINWISYDLKKRYCYLPELLQTVRLALLPAIYLMENVAMEELITKQRKSKEIVEEAIRCKLKILQNDGVVTSLCARPRKTGHALFLLGGQTFMCDKLYLVDQKAKEIIPKADIPSPRKEFSACAIGCKVYITGGRGSENGVSKDVWVYDTLHEEWSKAAPMLVARFGHGSAELKHCLYVVGGHTAATGCLPASPSVSLKQVEHYDPTINKWTMVAPLREGVSNAAVVSAKLKLFAFGGTSVSHDKLPKVQCYDQCENRWTVPATCPQPWRYTAAAVLGNQIFIMGGDTEFSACSAYKFNSETYQWTKVGDVTAKRMSCHAVASGNKLYVVGGYFGIQRCKTLDCYDPTLDVWNSITTVPYSLIPTAFVSTWKHLPS"}, "B4": {"name": "FUT7, Q11130 (protein)", "chain": "MNNAGHGPTRRLRGLGVLAGVALLAALWLLWLLGSAPRGTPAPQPTITILVWHWPFTDQPPELPSDTCTRYGIARCHLSANRSLLASADAVVFHHRELQTRRSHLPLAQRPRGQPWVWASMESPSHTHGLSHLRGIFNWVLSYRRDSDIFVPYGRLEPHWGPSPPLPAKSRVAAWVVSNFQERQLRARLYRQLAPHLRVDVFGRANGRPLCASCLVPTVAQYRFYLSFENSQHRDYITEKFWRNALVAGTVPVVLGPPRATYEAFVPADAFVHVDDFGSARELAAFLTGMNESRYQRFFAWRDRLRVRLFTDWRERFCAICDRYPHLPRSQVYEDLEGWFQA"}, "B5": {"name": "RBMS1, P29558 (protein)", "chain": "MGKVWKQQMYPQYATYYYPQYLQAKQSLVPAHPMAPPSPSTTSSNNNSSSSSNSGWDQLSKTNLYIRGLPPHTTDQDLVKLCQPYGKIVSTKAILDKTTNKCKGYGFVDFDSPAAAQKAVSALKASGVQAQMAKQQEQDPTNLYISNLPLSMDEQELENMLKPFGQVISTRILRDSSGTSRGVGFARMESTEKCEAVIGHFNGKFIKTPPGVSAPTEPLLCKFADGGQKKRQNPNKYIPNGRPWHREGEVRLAGMTLTYDPTTAAIQNGFYPSPYSIATNRMITQTSITPYIASPVSAYQVQSPSWMQPQPYILQHPGAVLTPSMEHTMSLQPASMISPLAQQMSHLSLGSTGTYMPATSAMQGAYLPQYAHMQTTAVPVEEASGQQQVAVETSNDHSPYTFQPNK"}},
  "note": "Some of the results follow. Interaction screen of human proteins with wild-type SARS-CoV-2 proteins by split-DHFR complementation in yeast, 1 µg/mL methotrexate. Value = fitness of the pair (three or more lineages) minus that of the viral protein without a human partner, on a scale set by negative (0) and fused positive (1) controls, mean of up to three cultures; higher = more likely to interact. Active = false discovery rate below 0.05 (one-sided t-test) in at least one culture. Nearly all pairs are not hits, and differences among them are mostly noise (correlation between cultures about 0.3); most hits were seen in one culture only. Human sequences are the Swiss-Prot entries looked up by gene name; the clone may be another isoform. NSP2 values were corrected by the authors for a growth advantage. Listed are human proteins with a hit and a random twelfth of the others.",
  "data": [
    {"target": "SARS-CoV-2 NSP12", "assay": "yeast fitness gain over the viral ORF with no human partner (scaled fitness); higher = more likely to interact", "protocol": "(§1)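 Split mouse DHFR complementation in pooled diploid yeast: human ORFeome clones carry one fragment and viral ORFs the other; barcoded lineages compete in 1 µg/mL methotrexate and fitness is read by barcode sequencing in up to three cultures.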", "values": [
      {"binder": "B1", "yeast fitness gain": "inactive: -0.0944"}
    ]},
    {"target": "SARS-CoV-2 NSP13", "assay": "yeast fitness gain over the viral ORF with no human partner (scaled fitness); higher = more likely to interact", "protocol": "as §1", "values": [
      {"binder": "B1", "yeast fitness gain": "inactive: -0.142"},
      {"binder": "B2", "yeast fitness gain": "inactive: 0.0151"},
      {"binder": "B3", "yeast fitness gain": "inactive: 0.032"},
      {"binder": "B4", "yeast fitness gain": "inactive: 0.0744"},
      {"binder": "B5", "yeast fitness gain": "inactive: 0.0297"}
    ]},
    {"target": "SARS-CoV-2 ORF6", "assay": "yeast fitness gain over the viral ORF with no human partner (scaled fitness); higher = more likely to interact", "protocol": "as §1", "values": [
      {"binder": "B1", "yeast fitness gain": "inactive: 0.0363"},
      {"binder": "B2", "yeast fitness gain": "inactive: -0.0192"},
      {"binder": "B3", "yeast fitness gain": "inactive: -0.227"},
      {"binder": "B4", "yeast fitness gain": "inactive: 0.00431"},
      {"binder": "B5", "yeast fitness gain": "inactive: -0.117"}
    ]},
    {"target": "SARS-CoV-2 NSP2", "assay": "yeast fitness gain over the viral ORF with no human partner (scaled fitness); higher = more likely to interact", "protocol": "as §1", "values": [
      {"binder": "B2", "yeast fitness gain": "inactive: -0.0628"},
      {"binder": "B3", "yeast fitness gain": "inactive: -0.117"},
      {"binder": "B5", "yeast fitness gain": "inactive: 0.0156"}
    ]},
    {"target": "SARS-CoV-2 ORF10", "assay": "yeast fitness gain over the viral ORF with no human partner (scaled fitness); higher = more likely to interact", "protocol": "as §1", "values": [
      {"binder": "B2", "yeast fitness gain": "inactive: 0.00999"}
    ]},
    {"target": "SARS-CoV-2 ORF3B", "assay": "yeast fitness gain over the viral ORF with no human partner (scaled fitness); higher = more likely to interact", "protocol": "as §1", "values": [
      {"binder": "B2", "yeast fitness gain": "inactive: 0.0466"},
      {"binder": "B4", "yeast fitness gain": "inactive: 0.119"}
    ]},
    {"target": "SARS-CoV-2 ORF7B", "assay": "yeast fitness gain over the viral ORF with no human partner (scaled fitness); higher = more likely to interact", "protocol": "as §1", "values": [
      {"binder": "B2", "yeast fitness gain": "inactive: -0.143"}
    ]},
    {"target": "SARS-CoV-2 ORF9B", "assay": "yeast fitness gain over the viral ORF with no human partner (scaled fitness); higher = more likely to interact", "protocol": "as §1", "values": [
      {"binder": "B3", "yeast fitness gain": "inactive: 0.0295"},
      {"binder": "B5", "yeast fitness gain": "inactive: -0.0379"}
    ]},
    {"target": "SARS-CoV-2 NSP8", "assay": "yeast fitness gain over the viral ORF with no human partner (scaled fitness); higher = more likely to interact", "protocol": "as §1", "values": [
      {"binder": "B4", "yeast fitness gain": "inactive: 0.0691"}
    ]},
    {"target": "SARS-CoV-2 ORF8", "assay": "yeast fitness gain over the viral ORF with no human partner (scaled fitness); higher = more likely to interact", "protocol": "as §1", "values": [
      {"binder": "B4", "yeast fitness gain": "inactive: -0.132"}
    ]},
    {"target": "SARS-CoV-2 NSP5", "assay": "yeast fitness gain over the viral ORF with no human partner (scaled fitness); higher = more likely to interact", "protocol": "as §1", "values": [
      {"binder": "B5", "yeast fitness gain": "inactive: -0.109"}
    ]},
    {"target": "SARS-CoV-2 ORF7A", "assay": "yeast fitness gain over the viral ORF with no human partner (scaled fitness); higher = more likely to interact", "protocol": "as §1", "values": [
      {"binder": "B5", "yeast fitness gain": "inactive: 0.0305"}
    ]}
  ]
}
